# Measurements taken from the supplement of paper PMC8728848.
# This is one part of the list.
# Experiments:
# Assay in all cases: glycan array binding signal (z-score within array); higher = stronger binding
# Details in all cases: glycan notation: IUPAC condensed, linker removed
# [1] = target: Gal(a1-3)Gal(b1-4)GlcNAc(b1-2)Man
# Outline: (§1)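 The binding signal is a Z-score computed within each array. Data were drawn from 3228 arrays in the Consortium for Functional Glycomics database, restricted to those with a known protein sequence. Scores were averaged over arrays of the same protein sequence at different concentrations or buffers, and over linkers, and negative values can be taken as non-binding.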
# [2] = target: Gal(a1-3)Gal(b1-4)GlcNAc(b1-2)Man(a1-3)[Gal(a1-3)Gal(b1-4)GlcNAc(b1-2)Man(a1-6)]Man(b1-4)GlcNAc(b1-4)GlcNAc
# Outline: as §1
# [3] = target: Gal(a1-3)Gal(b1-4)GlcNAc(b1-3)GalNAc
# Outline: as §1
# [4] = target: Gal(a1-3)Gal(b1-4)GlcNAc(b1-6)GalNAc
# Outline: as §1
# [5] = target: Gal(a1-3)Gal(b1-4)[Fuc(a1-3)]GlcNAc
# Outline: as §1
# [6] = target: Gal(a1-3)Gal(b1-4)[Fuc(a1-3)]GlcNAc(b1-2)Man(a1-3)[Gal(a1-3)Gal(b1-4)[Fuc(a1-3)]GlcNAc(b1-2)Man(a1-6)]Man(b1-4)GlcNAc(b1-4)GlcNAc
# Outline: as §1
# Gal(a1-3)GalNAc = target: Gal(a1-3)GalNAc
# Outline: as §1
# [7] = target: Gal(a1-3)[Gal(a1-4)]Gal(b1-4)GlcNAc
# Outline: as §1
# [8] = target: Gal(a1-4)Gal(b1-3)GlcNAc(b1-2)Man(a1-3)[Gal(a1-4)Gal(b1-3)GlcNAc(b1-2)Man(a1-6)]Man(b1-4)GlcNAc(b1-4)GlcNAc
# Outline: as §1
# Gal(a1-4)Gal(b1-4)Glc = target: Gal(a1-4)Gal(b1-4)Glc
# Outline: as §1
# Gal(a1-4)Gal(b1-4)GlcNAc = target: Gal(a1-4)Gal(b1-4)GlcNAc
# Outline: as §1
# [9] = target: Gal(a1-4)Gal(b1-4)GlcNAc(b1-2)Man(a1-3)[Gal(a1-4)Gal(b1-4)GlcNAc(b1-2)Man(a1-6)]Man(b1-4)GlcNAc(b1-4)GlcNAc
# Outline: as §1
# [10] = target: Gal(a1-4)Gal(b1-4)GlcNAc(b1-3)Gal(b1-4)Glc
# Outline: as §1
# Gal(a1-4)GlcNAc = target: Gal(a1-4)GlcNAc
# Outline: as §1
# Gal(a1-6)Glc = target: Gal(a1-6)Glc
# Outline: as §1
# Gal(b1-2)Gal = target: Gal(b1-2)Gal
# Outline: as §1
# Gal(b1-3)Gal = target: Gal(b1-3)Gal
# Outline: as §1
# Gal(b1-3)Gal(b1-4)GlcNAc = target: Gal(b1-3)Gal(b1-4)GlcNAc
# Outline: as §1
# Gal(b1-3)GalNAc = target: Gal(b1-3)GalNAc
# Outline: as §1
# [11] = target: Gal(b1-3)GalNAc(a1-3)[Fuc(a1-2)]Gal(b1-4)Glc
# Outline: as §1
# [12] = target: Gal(b1-3)GalNAc(a1-3)[Fuc(a1-2)]Gal(b1-4)GlcNAc
# Outline: as §1
# Gal(b1-3)GalNAc(b1-3)Gal = target: Gal(b1-3)GalNAc(b1-3)Gal
# Outline: as §1
# [13] = target: Gal(b1-3)GalNAc(b1-3)Gal(a1-4)Gal(b1-4)Glc
# Outline: as §1
# [14] = target: Gal(b1-3)GalNAc(b1-4)Gal(b1-4)Glc
# Outline: as §1
# [15] = target: Gal(b1-3)GalNAc(b1-4)[Neu5Ac(a2-3)]Gal(b1-4)Glc
# Outline: as §1
# Gal(b1-3)GlcNAc = target: Gal(b1-3)GlcNAc
# Outline: as §1
# [16] = target: Gal(b1-3)GlcNAc(a1-3)Gal(b1-4)GlcNAc
# Outline: as §1
# [17] = target: Gal(b1-3)GlcNAc(a1-6)Gal(b1-4)GlcNAc
# Outline: as §1
# Gal(b1-3)GlcNAc(b1-2)Man = target: Gal(b1-3)GlcNAc(b1-2)Man
# Outline: as §1
# [18] = target: Gal(b1-3)GlcNAc(b1-2)Man(a1-3)[Gal(b1-3)GlcNAc(b1-2)Man(a1-6)]Man(b1-4)GlcNAc(b1-4)GlcNAc
# Outline: as §1
# [19] = target: Gal(b1-3)GlcNAc(b1-2)Man(a1-3)[Gal(b1-3)GlcNAc(b1-2)Man(a1-6)]Man(b1-4)GlcNAc(b1-4)[Fuc(a1-6)]GlcNAc
# Outline: as §1
# [20] = target: Gal(b1-3)GlcNAc(b1-2)Man(a1-3)[GlcNAc(b1-4)][Gal(b1-3)GlcNAc(b1-2)Man(a1-6)]Man(b1-4)GlcNAc(b1-4)GlcNAc
# Outline: as §1
# [21] = target: Gal(b1-3)GlcNAc(b1-2)[Gal(b1-3)GlcNAc(b1-6)]Man(a1-6)[Gal(b1-3)GlcNAc(b1-2)Man(a1-3)]Man(b1-4)GlcNAc(b1-4)GlcNAc
# Outline: as §1
# [22] = target: Gal(b1-3)GlcNAc(b1-3)Gal(b1-3)GlcNAc
# Outline: as §1
# [23] = target: Gal(b1-3)GlcNAc(b1-3)Gal(b1-4)Glc
# Outline: as §1
# [24] = target: Gal(b1-3)GlcNAc(b1-3)Gal(b1-4)GlcNAc
# Outline: as §1
# [25] = target: Gal(b1-3)GlcNAc(b1-3)Gal(b1-4)GlcNAc(b1-2)Man(a1-3)[Gal(b1-3)GlcNAc(b1-3)Gal(b1-4)GlcNAc(b1-2)Man(a1-6)]Man(b1-4)GlcNAc(b1-4)GlcNAc
# Outline: as §1
binder,measurement,setting,value
PNGase F (Flavobacterium meningosepticum) (protein) GIPAPADNTVNIKTFDKVKNAFGDGLSQSAEGTFTFPADVTAVKTIKMFIKNECPNKTCDEWDRYANVYVKNKTTGEWYEIGRFITPYWVGTEKLPRGLEIDVTDFKSLLSGNTELKIYTETWLAKGREYSVDFDIVYGTPDYKYSAVVPVVQYNKSSIDGVPYGKAHTLALKKNIQLPTNTEKAYLRTTISGWGHAKPYDAGSRGCAEWCFRTHTIAINNSNTFQHQLGALGCSANPINNQSPGNWTPDRAGWCPGMAVPTRIDVLNNSLIGSTFSYEYKFQNWTNNGTNGDAFYAISSFVIAKSNTPISAPVVTNLDPHHHHHH,glycan array binding signal (z-score),[1],0.524
same,glycan array binding signal (z-score),[2],-0.134
same,glycan array binding signal (z-score),[3],-0.274
same,glycan array binding signal (z-score),[4],-0.319
same,glycan array binding signal (z-score),[5],-0.282
same,glycan array binding signal (z-score),[6],0.101
same,glycan array binding signal (z-score),Gal(a1-3)GalNAc,-0.073
same,glycan array binding signal (z-score),[7],-0.334
same,glycan array binding signal (z-score),[8],-0.495
same,glycan array binding signal (z-score),Gal(a1-4)Gal(b1-4)Glc,0.612
same,glycan array binding signal (z-score),Gal(a1-4)Gal(b1-4)GlcNAc,-0.114
same,glycan array binding signal (z-score),[9],-0.234
same,glycan array binding signal (z-score),[10],0.115
same,glycan array binding signal (z-score),Gal(a1-4)GlcNAc,0.72
same,glycan array binding signal (z-score),Gal(a1-6)Glc,0.306
same,glycan array binding signal (z-score),Gal(b1-2)Gal,0.746
same,glycan array binding signal (z-score),Gal(b1-3)Gal,0.615
same,glycan array binding signal (z-score),Gal(b1-3)Gal(b1-4)GlcNAc,-0.228
same,glycan array binding signal (z-score),Gal(b1-3)GalNAc,0.044
same,glycan array binding signal (z-score),[11],-0.216
same,glycan array binding signal (z-score),[12],-0.308
same,glycan array binding signal (z-score),Gal(b1-3)GalNAc(b1-3)Gal,0.019
same,glycan array binding signal (z-score),[13],0.036
same,glycan array binding signal (z-score),[14],0.042
same,glycan array binding signal (z-score),[15],-0.306
same,glycan array binding signal (z-score),Gal(b1-3)GlcNAc,-0.042
same,glycan array binding signal (z-score),[16],-0.309
same,glycan array binding signal (z-score),[17],-0.297
same,glycan array binding signal (z-score),Gal(b1-3)GlcNAc(b1-2)Man,0.106
same,glycan array binding signal (z-score),[18],-0.261
same,glycan array binding signal (z-score),[19],-0.351
same,glycan array binding signal (z-score),[20],0.009
same,glycan array binding signal (z-score),[21],-0.167
same,glycan array binding signal (z-score),[22],-0.206
same,glycan array binding signal (z-score),[23],-0.185
same,glycan array binding signal (z-score),[24],-0.283
same,glycan array binding signal (z-score),[25],-0.316
